Drawing on patent publication US20250270287A1 (KEROS THERAPEUTICS, published 2025), this text covers Kd for one molecule.

In general, Kd refers to the equilibrium constant for the complex coming apart. High values mean lower affinity, low ones higher affinity.

Common to all, as to assay: SPR (Biacore 8K), Fc protein captured on anti-human IgG, ligand injected
On the technique in general: SPR reads the build-up and loss of mass on a sensor chip optically.

Assay [1] concerns the target T1, Activin A (UniProt P08476 311-426).
T1 sequence (looked up): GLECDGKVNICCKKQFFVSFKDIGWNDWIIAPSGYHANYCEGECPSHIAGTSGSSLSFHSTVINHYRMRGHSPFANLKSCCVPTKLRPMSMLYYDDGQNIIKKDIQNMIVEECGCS
The protocol:
(§1) The Cytiva Biacore 8k was used to measure the kinetics of the interactions between the ActRII- and chimera-Fc proteins and Activin A/Activin B/growth differentiation factor 8 (GDF-8)/GDF-11/BMP-9/BMP-10. Series S CM4 Sensor Chips were immobilized with anti-human capture antibody using the reagents and protocol in the Biacore Human Antibody Capture Kit (GE Life Sciences). Briefly, anti-human IgG was diluted to 25 μg/mL in immobilization buffer. The carboxylated surface of the sensor was activated by injecting a mixture of EDC and NHS. The anti-human IgG was injected into the activated sensor chip flow cells at 10 μL/min for a total of 7 minutes until the chip reached an immobilization level of 3000 resonance units (RU). Ethanolamine was injected to deactivate the sensor surfaces. The chip has 8 flow cells to be used for binding analysis, each with an in-line reference surface to subtract instrument noise and non-specific binding to the sensor chip. The ActRII- and chimera-Fc proteins were captured in their own flow cell to allow for a maximum analyte binding response of 20-30 RU. This was done by injecting 10-20 μL of the ActRII- and chimera-Fc proteins into the flow cells at a concentration of 2 μg/mL until 60-90 RU was captured. Ligand at a single concentration was injected at […] for 60 seconds and then allowed to dissociate under buffer flow for no less than 5 minutes. After the cycle completed, captured protein was stripped from the chip with an injection of 3 M magnesium chloride, the regeneration buffer provided with the Biacore Human Antibody Capture Kit. Each ligand was injected in a concentration series, including a buffer only 0 nM concentration to serve as a double reference for subtracting out instrument noise. The data were analyzed using the Biacore Insight Evaluation Software.

The target of assay [2] is T2, Activin B (UniProt P09529 293-407).
T2 sequence (looked up): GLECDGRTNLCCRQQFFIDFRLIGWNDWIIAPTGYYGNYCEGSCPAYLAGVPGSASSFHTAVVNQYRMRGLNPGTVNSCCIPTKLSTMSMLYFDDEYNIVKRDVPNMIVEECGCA
As to the method: as §1

The target of assay [3] is T3, growth differentiation factor 8 (GDF-8) (UniProt O14793 267-375).
T3 construct: also called myostatin
T3 sequence (looked up): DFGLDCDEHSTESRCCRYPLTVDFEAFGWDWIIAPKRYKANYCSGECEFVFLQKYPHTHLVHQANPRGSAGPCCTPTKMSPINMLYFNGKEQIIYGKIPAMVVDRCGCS
As to the method:
as §1

Assay [4] addresses T4, GDF-11 (UniProt O95390 299-407).
T4 construct: also called growth and differentiation factor 11
T4 sequence (looked up): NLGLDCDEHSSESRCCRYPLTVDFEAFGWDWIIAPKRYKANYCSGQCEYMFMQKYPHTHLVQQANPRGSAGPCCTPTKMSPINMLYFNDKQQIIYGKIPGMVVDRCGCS
The protocol: as §1

The target of assay [5] is T5, BMP-9 (UniProt Q9UK05 320-429).
T5 construct: also called bone morphogenetic protein 9
T5 sequence (looked up): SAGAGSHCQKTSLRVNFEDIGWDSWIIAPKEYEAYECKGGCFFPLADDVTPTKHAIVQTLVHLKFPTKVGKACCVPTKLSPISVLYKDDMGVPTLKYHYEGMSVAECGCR
As to the method: as §1

In assay [6] the target is T6, BMP-10 (UniProt O95393 317-424).
T6 sequence (looked up): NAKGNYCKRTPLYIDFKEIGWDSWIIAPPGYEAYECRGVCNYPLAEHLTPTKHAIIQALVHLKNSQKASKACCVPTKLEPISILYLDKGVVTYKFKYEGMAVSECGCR
The protocol: as §1

B1: ActRIIA (SEQ ID NO: 30) Fc protein (Fc fusion)
chain: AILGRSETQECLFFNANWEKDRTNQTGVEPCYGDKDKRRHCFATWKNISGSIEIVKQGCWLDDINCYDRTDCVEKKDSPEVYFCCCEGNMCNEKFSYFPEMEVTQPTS
notes: also called ActRII-Fc; wild-type extracellular ActRIIA; not shown: linker (if any) and Fc domain
With B1, the Kd in assay [1] was 0.16 nM; in assay [2], 0.066 nM; in assay [3], 0.222 nM; in assay [4], below 0.001 nM; in assay [5], 59.1 nM; in assay [6], 0.105 nM.
